{"source": "paper PMC12820563", "note": "The other results are listed elsewhere or left out. The list includes weakly bound sequences.", "data": [{"target": "T1, MBP-FoxP3dN (UniProt Q99JB6)", "T1 sequence": "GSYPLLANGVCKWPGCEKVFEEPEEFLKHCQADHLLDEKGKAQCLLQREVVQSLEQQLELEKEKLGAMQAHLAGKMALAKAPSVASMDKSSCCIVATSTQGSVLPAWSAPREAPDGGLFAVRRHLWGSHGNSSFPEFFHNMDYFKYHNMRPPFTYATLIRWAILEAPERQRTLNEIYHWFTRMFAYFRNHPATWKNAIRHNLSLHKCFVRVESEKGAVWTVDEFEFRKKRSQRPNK", "assay": "PD-seq (MBP pull-down with sequencing)", "details": "20 mM Tris-HCl pH 7.5, 100 mM NaCl, 1.5 mM MgCl2, 0.4 uM protein, 0.1 uM dsDNA library, 30 min, room temperature, amylose pull-down; high values mean tight binding; double strand, one strand shown", "values": [{"sequence": "GATGATTGTTCTCCCAGCTGATGAATTGAGCGGTTCGAGTAAACAAATTTTCCTAATCTTTCTGTTCAAGCGCCATCTAC", "binding signal (RPM ratio (pull-down/input))": 0.529}, {"sequence": "GATGATTGTTCTCCCAGCTGATGAATTTTCAATATCGAGTAAACAAATTTTCCTAATCTTTCTGTTCAAGCGCCATCTAC", "binding signal (RPM ratio (pull-down/input))": 0.409}, {"sequence": "GATGATTGTTCTCCCAGCTGATGAATTTTACGGGTCGAGTAAACAAATTTTCCTAATCTTTCTGTTCAAGCGCCATCTAC", "binding signal (RPM ratio (pull-down/input))": 0.195}, {"sequence": "GATGATTGTTCTCCCAGCTGATGAATTGTGGCGATCGAGTAAACAAATTTTCCTAATCTTTCTGTTCAAGCGCCATCTAC", "binding signal (RPM ratio (pull-down/input))": 1.74}, {"sequence": "GATGATTGTTCTCCCAGCTGATGAATTGGTCACCTCGAGTAAACAAATTTTCCTAATCTTTCTGTTCAAGCGCCATCTAC", "binding signal (RPM ratio (pull-down/input))": 0.631}, {"sequence": "GATGATTGTTCTCCCAGCTGATGAATTCAGGTAGTCGAGTAAACAAATTTTCCTAATCTTTCTGTTCAAGCGCCATCTAC", "binding signal (RPM ratio (pull-down/input))": 0.414}, {"sequence": "GATGATTGTTCTCCCAGCTGATGAATTAGAGTGGTCGAGTAAACAAATTTTCCTAATCTTTCTGTTCAAGCGCCATCTAC", "binding signal (RPM ratio (pull-down/input))": 0.553}, {"sequence": "GATGATTGTTCTCCCAGCTGATGAATTCCCGCAATCGAGTAAACAAATTTTCCTAATCTTTCTGTTCAAGCGCCATCTAC", "binding signal (RPM ratio (pull-down/input))": 2.48}, {"sequence": "GATGATTGTTCTCCCAGCTGATGAATTCCAGGGGTCGAGTAAACAAATTTTCCTAATCTTTCTGTTCAAGCGCCATCTAC", "binding signal (RPM ratio (pull-down/input))": 0.322}, {"sequence": "GATGATTGTTCTCCCAGCTGATGAATTGTAGATATCGAGTAAACAAATTTTCCTAATCTTTCTGTTCAAGCGCCATCTAC", "binding signal (RPM ratio (pull-down/input))": 0.648}, {"sequence": "GATGATTGTTCTCCCAGCTGATGAATTTTACAGGTCGAGTAAACAAATTTTCCTAATCTTTCTGTTCAAGCGCCATCTAC", "binding signal (RPM ratio (pull-down/input))": 0.178}, {"sequence": "GATGATTGTTCTCCCAGCTGATGAATTACTGCCCTCGAGTAAACAAATTTTCCTAATCTTTCTGTTCAAGCGCCATCTAC", "binding signal (RPM ratio (pull-down/input))": 0.441}, {"sequence": "GATGATTGTTCTCCCAGCTGATGAATTAAAGAGTTCGAGTAAACAAATTTTCCTAATCTTTCTGTTCAAGCGCCATCTAC", "binding signal (RPM ratio (pull-down/input))": 0.326}, {"sequence": "GATGATTGTTCTCCCAGCTGATGAATTTGGGATGTCGAGTAAACAAATTTTCCTAATCTTTCTGTTCAAGCGCCATCTAC", "binding signal (RPM ratio (pull-down/input))": 0.587}, {"sequence": "GATGATTGTTCTCCCAGCTGATGAATTCAAGCCCTCGAGTAAACAAATTTTCCTAATCTTTCTGTTCAAGCGCCATCTAC", "binding signal (RPM ratio (pull-down/input))": 0.48}, {"sequence": "GATGATTGTTCTCCCAGCTGATGAATTACTTCAATCGAGTAAACAAATTTTCCTAATCTTTCTGTTCAAGCGCCATCTAC", "binding signal (RPM ratio (pull-down/input))": 0.25}, {"sequence": "GATGATTGTTCTCCCAGCTGATGAATTTATCCAGTCGAGTAAACAAATTTTCCTAATCTTTCTGTTCAAGCGCCATCTAC", "binding signal (RPM ratio (pull-down/input))": 0.301}, {"sequence": "GATGATTGTTCTCCCAGCTGATGAATTTGGACAATCGAGTAAACAAATTTTCCTAATCTTTCTGTTCAAGCGCCATCTAC", "binding signal (RPM ratio (pull-down/input))": 0.497}, {"sequence": "GATGATTGTTCTCCCAGCTGATGAATTGTGACTATCGAGTAAACAAATTTTCCTAATCTTTCTGTTCAAGCGCCATCTAC", "binding signal (RPM ratio (pull-down/input))": 1.16}, {"sequence": "GATGATTGTTCTCCCAGCTGATGAATTTTGATACTCGAGTAAACAAATTTTCCTAATCTTTCTGTTCAAGCGCCATCTAC", "binding signal (RPM ratio (pull-down/input))": 1.31}, {"sequence": "GATGATTGTTCTCCCAGCTGATGAATTTCCTTAGTCGAGTAAACAAATTTTCCTAATCTTTCTGTTCAAGCGCCATCTAC", "binding signal (RPM ratio (pull-down/input))": 0.223}, {"sequence": "GATGATTGTTCTCCCAGCTGATGAATTATTGGGTTCGAGTAAACAAATTTTCCTAATCTTTCTGTTCAAGCGCCATCTAC", "binding signal (RPM ratio (pull-down/input))": 0.724}, {"sequence": "GATGATTGTTCTCCCAGCTGATGAATTGCCCAGGTCGAGTAAACAAATTTTCCTAATCTTTCTGTTCAAGCGCCATCTAC", "binding signal (RPM ratio (pull-down/input))": 0.296}, {"sequence": "GATGATTGTTCTCCCAGCTGATGAATTCCAAGTGTCGAGTAAACAAATTTTCCTAATCTTTCTGTTCAAGCGCCATCTAC", "binding signal (RPM ratio (pull-down/input))": 0.347}, {"sequence": "GATGATTGTTCTCCCAGCTGATGAATTCCAATGTTCGAGTAAACAAATTTTCCTAATCTTTCTGTTCAAGCGCCATCTAC", "binding signal (RPM ratio (pull-down/input))": 0.646}, {"sequence": "GATGATTGTTCTCCCAGCTGATGAATTGTAGCCATCGAGTAAACAAATTTTCCTAATCTTTCTGTTCAAGCGCCATCTAC", "binding signal (RPM ratio (pull-down/input))": 1.99}, {"sequence": "GATGATTGTTCTCCCAGCTGATGAATTCCCGCTATCGAGTAAACAAATTTTCCTAATCTTTCTGTTCAAGCGCCATCTAC", "binding signal (RPM ratio (pull-down/input))": 0.638}, {"sequence": "GATGATTGTTCTCCCAGCTGATGAATTGCCACATTCGAGTAAACAAATTTTCCTAATCTTTCTGTTCAAGCGCCATCTAC", "binding signal (RPM ratio (pull-down/input))": 1.63}, {"sequence": "GATGATTGTTCTCCCAGCTGATGAATTGCATCAATCGAGTAAACAAATTTTCCTAATCTTTCTGTTCAAGCGCCATCTAC", "binding signal (RPM ratio (pull-down/input))": 3.31}, {"sequence": "GATGATTGTTCTCCCAGCTGATGAATTGCAGTGCTCGAGTAAACAAATTTTCCTAATCTTTCTGTTCAAGCGCCATCTAC", "binding signal (RPM ratio (pull-down/input))": 0.811}, {"sequence": "GATGATTGTTCTCCCAGCTGATGAATTTAAGGCCTCGAGTAAACAAATTTTCCTAATCTTTCTGTTCAAGCGCCATCTAC", "binding signal (RPM ratio (pull-down/input))": 0.484}]}]}
